PMC4336329 (PLoS ONE, 2015)
Out of some 310,000 compounds screened, about 2,200 (0.71%) showed an effect of 50% or more. The effect is printed as a negative number. Some of the results follow.

target: human ether-à-go-go-related gene (hERG) potassium channel (human, UniProt Q12809); assay: primary screen, population patch clamp on CHO cells stably expressing hERG
Sequence (Q12809 whole entry, looked up): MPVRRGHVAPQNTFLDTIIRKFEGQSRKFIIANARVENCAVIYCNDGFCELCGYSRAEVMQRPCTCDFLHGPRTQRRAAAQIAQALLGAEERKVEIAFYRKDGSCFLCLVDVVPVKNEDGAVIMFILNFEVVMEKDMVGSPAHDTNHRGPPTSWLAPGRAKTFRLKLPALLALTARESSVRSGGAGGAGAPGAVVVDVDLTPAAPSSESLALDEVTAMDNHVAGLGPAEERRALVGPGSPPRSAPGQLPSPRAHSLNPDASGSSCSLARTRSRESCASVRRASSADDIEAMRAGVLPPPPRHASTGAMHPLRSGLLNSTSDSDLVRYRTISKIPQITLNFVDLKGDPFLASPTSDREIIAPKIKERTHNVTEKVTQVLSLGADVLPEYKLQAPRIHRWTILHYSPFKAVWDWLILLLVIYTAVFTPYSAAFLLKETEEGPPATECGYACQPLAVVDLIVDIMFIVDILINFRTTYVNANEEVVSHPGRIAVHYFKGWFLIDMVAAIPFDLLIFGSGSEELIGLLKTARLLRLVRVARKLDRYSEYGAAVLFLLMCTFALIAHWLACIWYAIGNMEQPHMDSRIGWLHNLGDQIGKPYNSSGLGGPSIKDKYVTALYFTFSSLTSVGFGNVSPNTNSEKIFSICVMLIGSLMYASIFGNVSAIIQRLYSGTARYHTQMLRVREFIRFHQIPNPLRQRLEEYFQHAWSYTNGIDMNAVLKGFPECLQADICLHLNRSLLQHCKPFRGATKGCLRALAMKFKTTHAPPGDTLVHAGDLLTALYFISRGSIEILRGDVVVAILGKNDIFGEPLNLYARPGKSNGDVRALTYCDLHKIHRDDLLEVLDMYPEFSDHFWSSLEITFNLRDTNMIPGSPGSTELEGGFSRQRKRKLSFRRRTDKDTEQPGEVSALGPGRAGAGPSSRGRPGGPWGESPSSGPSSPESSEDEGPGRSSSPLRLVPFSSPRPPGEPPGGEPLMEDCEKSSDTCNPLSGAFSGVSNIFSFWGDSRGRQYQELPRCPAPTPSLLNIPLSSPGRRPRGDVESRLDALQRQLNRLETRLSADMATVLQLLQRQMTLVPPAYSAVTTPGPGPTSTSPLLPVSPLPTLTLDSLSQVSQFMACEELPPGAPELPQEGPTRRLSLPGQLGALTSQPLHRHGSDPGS

SMILES	hERG current change (%, negative = inhibition) at 1uM
O=S(=O)(c1ccccc1)N1CC=C(c2ccccc2)CC1	3.79%
Cc1ccc(NC(=O)C2(c3ccccc3)CCOCC2)c([N+](=O)[O-])c1	4.67%
COc1cc(C(=O)NCCc2ccc(F)cc2)ccc1OCC(=O)N1CCOCC1	7.97%
CCCCC(C(=O)NCCC(C)C)N(CCCN1CCOCC1)C(=O)c1snc(C(N)=O)c1N (stereo not drawn)	-17.5%
CC(C)c1nnc(SCC(=O)NC(C)(C)C)n1C	11.6%
Cn1c(SCC(=O)c2c(N)n(C)c(=O)n(C)c2=O)nnc1-c1ccccc1F	12.8%
CCCC(=O)N1CCN(c2ccc([N+](=O)[O-])c(NC(C)c3ccccc3)c2)CC1 (stereo not drawn)	3.93%
O=C1c2ccccc2-c2c1cccc2C(=O)N1CCCCCC1	7.59%
Cc1nnc2n(c1=O)C(CS(=O)(=O)c1ccccc1)CS2 (stereo not drawn)	5.67%
Cc1ccc[n+](CC(=O)c2ccc(Cl)cc2)c1.[Cl-]	12.3%
CCOc1ccc(N2C(=O)c3ccc(C(=O)OCC(=O)N(CC)C4CCS(=O)(=O)C4)cc3C2=O)cc1 (stereo not drawn)	-2.6%
CCOc1ccccc1C(=O)Nc1cc(OC)ccc1OC	-8.18%
CC(C)Cn1c(-c2cccnc2)nc2c1c(=O)[nH]c(=O)n2CC(C)C	-0.85%
CCc1ccc2[nH]c(=O)c(CN(CCCN3CCOCC3)C(=O)Nc3ccc(F)cc3)cc2c1	-48.2%
Cc1ccc2scc(CN3CCCC3)c2c1.Cl	8.55%
Cc1ccc(CSc2nc(N)cc(N)n2)cc1	17.2%
Cc1ccc2nc(C3CCN(CC(=O)N4CCCCCC4)CC3)[nH]c2c1	9.46%
Cc1ccccc1-c1nnc(SCC(=O)NCc2ccc3c(c2)OCO3)n1C	6.31%
CCOC(=O)Cc1csc(NC(=S)NC(=O)c2ccc(Cl)cc2)n1	18.5%
CCOC(=O)CCNC(=O)Nc1cc2nc(C)n(Cc3cccc(Cl)c3)c2nc1C	2.57%
CC(C(=O)NC1CCCc2ccccc21)N1CCN(Cc2ccc3c(c2)OCO3)CC1 (stereo not drawn)	-11.9%

SMILES	hERG current change (%, negative = inhibition) at 1uM
CC/C(=N/N=C(\CC)c1ccccc1)c1ccccc1	2.54%
Cc1nc(NC(=O)CSc2nnc(Cn3nnc4ccccc43)n2C)sc1C	7.16%
O=C(CC1C(=O)NCCN1Cc1ccc(F)cc1)NCCCn1cccn1 (stereo not drawn)	-7.68%
Cc1ccc(-n2c(Cc3cccs3)nnc2SCC(=O)OC(C)C)cc1	-10.3%
O=C(CNC(=O)C1CCCCC1)OCC(=O)c1ccc(Cl)s1	4.86%
Cc1cc(Br)c(OCc2ccc(C(=O)N/N=C/c3ccc[nH]3)cc2)c(Br)c1	17.2%
O=C(CCN1CCCCC1)NNC(=O)C12CC3CC(CC(C3)C1)C2	18%
CC1=C/C(=C(\c2cc(C)c(O)c(Br)c2)c2ccccc2S(=O)(=O)O)C=C(Br)C1=O	15.9%
COc1ccc(C(=O)N/N=C/c2ccc(OC)c(COc3ccc(F)cc3)c2)cc1	1.17%
Cn1c(N)c(C(=O)CNC2CCCCC2)c(=O)n(C)c1=O	11.6%
CCCCC(=O)Nc1ccc2c(c1)nc1n2CCOC1	15.9%
CC(C)(C)NC(=O)CN1CCCN(C(=O)c2cccc(S(=O)(=O)N3CCc4ccccc43)c2)CC1	9.17%
CCOC(=O)N1CCC(NC(=O)c2ccc3c(=O)n4c(nc3c2)CCCC4)CC1	17.1%
Cn1c(=O)[nH]c(=O)c2[nH]c(NCCCN3CCOCC3)nc21	19.2%
Cc1ccccc1-c1noc(-c2ccccc2C(=O)O)n1	-5.91%
CCOC(=O)CC1=CSC2=NS(=O)(=O)CCN12	2.8%
COc1cc(NC(=O)Cn2c(=O)n(CC3CCCO3)c(=O)c3ccccc32)cc(OC)c1 (stereo not drawn)	8.85%
CCC/C(=N\NC(=O)CCC(=O)NCc1ccccc1)c1ccccc1	16.8%
CCOC(=O)CNC(=O)Nc1cccc(Cl)c1C	13.4%
COc1ccccc1OCC(=O)c1[nH]c(C)c(C(C)=O)c1C	0.653%
COc1ccc(-c2nc3c(c(=O)c4ccccc4n3C)c(=O)n2Cc2ccccc2)cc1	13.5%
